B1: PhoQ; a variant is named by its letters at X, in order, P23837 (parent)
chain: MKKLLRLFFPLSLRVRFLLATAAVVLVLSLAYGMVALIGYSVSFDKTTFRLLRGESNLFYTLAKWENNKLHVELPENIDKQSPTMTLIYDENGQLLWAQRDVPWLMKMIQPDWLKSNGFHEIEADVNDTSLLLSGDHSIQQQLQEVREDDDDAEMTHSVAVNVYPATSRMPKLTIVVVDTIPVELKSSYMVWSWFIYVLSANLLLVIPLLWVAAWWSLRPIEALAKEVRELEEHNRELLNPATTRELTSLVRNLNRLLKSERERYDKYRTTLTDLTHSLKTPLXXLQXXLRSLRSEKMSVSDAEPVMLEQISRISQQIGYYLHRASMRGGTLLSRELHPVAPLLDNLTSALNKVYQRKGVNISLDISPEISFVGEQNDFVEVMGNVLDNACKYCLEFVEISARQTDEHLYIVVEDDGPGIPLSKREVIFDRGQRVDTLRPGQGVGLAVAREITEQYEGKIVAGESMLGGARMEVIFGRQHSAPKDE

This is one part of the list. A value given as a limit tells only on which side of the number the result lay.

The test covers variants of B1. Briefly: enrichment ratio after two sorts for PhoP signalling (ratio (wild type AVST 3.29)); higher = more functional. The settings on record: with PhoP (E. coli).
Consider VIPA, for which the enrichment ratio was at most 0.25.
For TREI the value was at most 0.25; for TDQQ, at most 0.25.
For VSIE the value was at most 0.25; for ELHN, at most 0.25.
For IHQQ the value was at most 0.25; for FFTH, at most 0.25; for WLKT, at most 0.25.
Take DQLH: the enrichment ratio was at most 0.25.
For DIPC the value was at most 0.25; for MSMT, at most 0.25.
For HPDA the value was at most 0.25.
Under DEGF stands at most 0.25; under IPTT, at most 0.25; under YMLL, at most 0.25.
KYPA: the enrichment ratio was at most 0.25.
For VHPV, the enrichment ratio was at most 0.25.
For GCYL the value was at most 0.25; for VNMR, at most 0.25.
For QRYW the value was at most 0.25; for NCWE, at most 0.25; for WKIY, at most 0.25.
For WNML the value was at most 0.25; for GNWG, at most 0.25.
GWMQ: the enrichment ratio was at most 0.25.
Under YSCP stands at most 0.25; under SRCF, at most 0.25; under SLFQ, at most 0.25.
For WKAE the value was at most 0.25.
For VTYK the value was at most 0.25.
Turning to EYSS, the enrichment ratio was at most 0.25.
For the variant NCCK, the enrichment ratio was at most 0.25.
For NSEM the value was at most 0.25; for PTQE, at most 0.25; for WLST, at most 0.25.
Under SKAH stands 2.14; under LWWL, at most 0.25; under GTNI, at most 0.25.
For the variant IWLH, the enrichment ratio is at most 0.25.
Under VNAG stands at most 0.25; under YVYN, at most 0.25; under VAHR, at most 0.25.
Under QPWP stands at most 0.25; under MRPA, at most 0.25.
For FFAP the value was at most 0.25; for KRIG, at most 0.25.
As to AIAG, the enrichment ratio is 12.5.
For AFHR the value was at most 0.25; for EQTM, at most 0.25.
In the case of ERLG, the enrichment ratio was at most 0.25.
DALD: the enrichment ratio is at most 0.25.
Under HSRG stands at most 0.25; under NDKR, at most 0.25.
As to VFFL, the enrichment ratio was found to be 0.347.
On to EQHI, for which the enrichment ratio was at most 0.25.
Under DETS stands at most 0.25; under RFVP, at most 0.25.
For VFQP the value was at most 0.25; for DNFS, at most 0.25; for DFII, at most 0.25.
On to LTWK, for which the enrichment ratio is at most 0.25.
Under EMCD stands at most 0.25; under MWRN, at most 0.25; under FKNT, at most 0.25.
In the case of QHMN, the enrichment ratio was at most 0.25.
For SCSY the value was 9.45; for IIRN, at most 0.25.
Under TKAI stands 8.08; under NRYG, at most 0.25.
Under LDRN stands at most 0.25; under MKAY, at most 0.25.
Turning to QPTI, the enrichment ratio is at most 0.25.
For RECY the value was at most 0.25; for IHLN, at most 0.25; for NMAC, at most 0.25.
Take QYKG: the enrichment ratio was at most 0.25.
Under LHDM stands at most 0.25; under SDNM, at most 0.25; under ASIS, 7.49.
Under EEMR stands at most 0.25; under TGVD, at most 0.25.
For the variant DTRG, the enrichment ratio was at most 0.25.
For TAGK the value was at most 0.25; for LMPH, 0.42.
For VFTV the value was at most 0.25; for EECY, at most 0.25.
For PQNS the value was at most 0.25; for RGVS, at most 0.25; for TVFK, at most 0.25.
With NDTS, the enrichment ratio is at most 0.25.
Under AMFK stands at most 0.25.
Under DPMK stands at most 0.25; under RNAQ, at most 0.25; under EHFT, at most 0.25.
For FMPE, the enrichment ratio was at most 0.25.
Under DFTK stands at most 0.25; under TIDL, at most 0.25; under VPKC, at most 0.25.
Consider SVPE, for which the enrichment ratio was at most 0.25.
For YFLQ the value was at most 0.25; for NWET, at most 0.25; for FSHV, at most 0.25.
Turning to HDLG, the enrichment ratio is at most 0.25.
For YIPL the value was at most 0.25; for LHTK, at most 0.25.
For SMIE the value was at most 0.25; for GPHQ, at most 0.25; for LRVS, at most 0.25.
Under DSFG stands at most 0.25.
For the variant QHPN, the enrichment ratio was at most 0.25.
For RNYN the value was at most 0.25; for KELI, at most 0.25; for YNCA, 0.384.
In the case of GFRR, the enrichment ratio is at most 0.25.
For VGYV the value was at most 0.25; for PRNF, at most 0.25.
For PNPY the value was at most 0.25; for HMKY, at most 0.25; for YCHM, at most 0.25.
On to QMQW, for which the enrichment ratio is at most 0.25.
Under IMDV stands at most 0.25.
For NGHY, the enrichment ratio is at most 0.25.
In the case of WLYK, the enrichment ratio was at most 0.25.
As to NWWK, the enrichment ratio is at most 0.25.
Under EMPV stands at most 0.25; under DNKS, at most 0.25; under HEHR, at most 0.25.
Under TKPH stands at most 0.25; under RLQI, at most 0.25; under RLFL, at most 0.25.
With TRPG, the enrichment ratio was at most 0.25.
Under HYRR stands at most 0.25; under FLYQ, at most 0.25.
For CLCC the value was at most 0.25; for NSSW, at most 0.25; for EPVY, at most 0.25.
For VNID the value was at most 0.25; for PTSK, at most 0.25.
For the variant KRFW, the enrichment ratio is at most 0.25.
Under AWSG stands at most 0.25.
Under TDLV stands 8.9.
For HKNL the value was at most 0.25.
On to FPCG, for which the enrichment ratio is at most 0.25.
For PIKV the value was at most 0.25; for WFGF, at most 0.25; for EHRD, 1.35.
Turning to DNLF, the enrichment ratio is at most 0.25.
For TCHS the value was 0.799; for GHFR, at most 0.25.
For AMPV the value was at most 0.25.
For AVSM the value was 11.3; for LNSH, at most 0.25.
Consider IWVW, for which the enrichment ratio was at most 0.25.

The values above are taken from a collection of fitness landscapes (doi:10.1126/science.1257360).
